Laboratory results published in the supplement of paper PMC9446081.
The whole screen tested about 39,000 compounds, of which about 220 (0.56%) showed activity. Some of the results follow.
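Further: static incubation at 37 °C against the wild-type strain, values averaged over two biological replicates.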

The compounds below were run on Escherichia coli K-12 BW25113 (assay: relative growth (OD600 normalised to plate interquartile mean) (fraction); higher = less growth inhibition, active = 0.2 or less). Conditions: 50 µM; LB; incubation time: overnight (16-24 h).
With `O=C(OCc1ccccc1)c1cccnc1` the relative growth was inactive: 0.814.
With `Cc1ccc(S(=O)(=O)N(C)C[C@H]2Oc3ccc(NC(=O)Cn4cnnn4)cc3C(=O)N([C@H](C)CO)C[C@@H]2C)cc1` the relative growth was inactive: 1.
In the case of `COc1ccc2c3c(n(c2c1)C)[C@@H](CO)N(C[C@]13CN(C1)S(=O)(=O)C)C(=O)CN(C)C`, the relative growth is reported as inactive: 1.
For `O=C(Nn1cnnc1)c1ccccc1`, the relative growth was inactive: 1.05.
With `C[C@H](CO)N1C[C@H](C)[C@H](CN(C)S(=O)(=O)c2ccccc2)Oc2ccc(NC(=O)Nc3cccc4ccccc34)cc2C1=O` the relative growth was inactive: 1.03.
With `COc1ccc(CN(C)C[C@@H]2OCCCC[C@H](C)Oc3ccc(NS(=O)(=O)c4cccs4)cc3C(=O)N([C@@H](C)CO)C[C@H]2C)cc1` the relative growth was inactive: 1.01.
For `COc1ccc(S(=O)(=O)Nc2ccc3c(c2)CC(=O)N([C@@H](C)CO)C[C@@H](C)[C@@H](CN(C)Cc2ccncc2)O3)cc1`, the relative growth was inactive: 0.981.
In the case of `COc1ccc(NC(=O)Nc2ccc3c(c2)C(=O)N([C@@H](C)CO)C[C@H](C)[C@H](CN(C)CC2CCCCC2)OCCCC[C@H](C)O3)cc1`, the relative growth is reported as inactive: 0.963.
For `CN1C(=O)c2cc(NS(=O)(=O)c3ccc(F)cc3)ccc2OC[C@@H]2O[C@H](CC(=O)NCC(F)(F)F)CC[C@@H]21`, the relative growth was inactive: 0.988.
In the case of `C[C@@H]1CN([C@H](C)CO)C(=O)c2cc(NS(=O)(=O)c3cn(C)cn3)ccc2O[C@@H](C)CCCCO[C@@H]1CN(C)S(C)(=O)=O`, the relative growth is reported as inactive: 0.989.
With `C[C@H]1CN([C@@H](C)CO)C(=O)c2cc(NS(C)(=O)=O)ccc2O[C@H]1CN(C)Cc1ccc2c(c1)OCO2` the relative growth was inactive: 1.01.
`C[C@@H]1CCCCO[C@H](CN(C)C(=O)Nc2ccccc2)[C@@H](C)CN([C@H](C)CO)C(=O)c2cc(NC(=O)Nc3ccc(C(F)(F)F)cc3)ccc2O1` was tested, and the relative growth was inactive: 1.01.
In the case of `CCOC(=O)[C@H](Cc1c[nH]c2ccccc12)NC(=O)Cn1cc(CN2C(=O)COC[C@H]2c2ccccc2)nn1`, the relative growth is reported as inactive: 1.01.
For `C[C@@H]1CN([C@H](C)CO)S(=O)(=O)c2ccc(C3=CCCC3)cc2O[C@@H]1CN(C)C(=O)C1CCOCC1`, the relative growth was inactive: 1.
`COc1ccc(S(=O)(=O)N(C)C[C@@H]2OCCCC[C@@H](C)Oc3ccc(NC(=O)C4CCCCC4)cc3C(=O)N([C@H](C)CO)C[C@H]2C)cc1` was tested, and the relative growth was inactive: 1.03.
For `C[C@@H]1CN([C@@H](C)CO)C(=O)c2cc(C#C[C@@H](C)O)cnc2O[C@@H]1CN(C)C(=O)Nc1ccc(C(F)(F)F)cc1`, the relative growth was inactive: 1.
`Oc1ccc([C@@H]2C=CCC2)cc1` was tested, and the relative growth was inactive: 0.947.
In the case of `CC(C)C(N)C(=O)OCC(CO)OCn1cnc2c(=O)[nH]c(N)nc21.Cl` (configuration not stated), the relative growth is reported as inactive: 1.13.
For `C[C@@H]1CN([C@H](C)CO)C(=O)c2cccc(NS(C)(=O)=O)c2O[C@H]1CN(C)C(=O)Nc1ccc2c(c1)OCO2`, the relative growth was inactive: 0.996.
With `O=C(CCCCC(=O)Nc1c(I)cc(I)c(C(=O)O)c1I)Nc1c(I)cc(I)c(C(=O)O)c1I` the relative growth was inactive: 1.06.
In the case of `COc1oc(C(=O)NC2CCCCC2)c(-c2ccc(Cl)cc2)c1S(=O)(=O)c1cccc(Cl)c1`, the relative growth is reported as inactive: 0.914.
`CO[C@H](CN(C)C(=O)c1ccc2c(c1)OCO2)[C@@H](C)CN([C@H](C)CO)S(=O)(=O)c1ccc(Cl)cc1` was tested, and the relative growth was inactive: 0.983.
In the case of `C[C@](N)(Cc1ccc(O)c(O)c1)C(=O)O`, the relative growth is reported as inactive: 1.02.
With `CO[C@@H]1CN(C)C(=O)c2cc(NC(=O)Nc3c(C)noc3C)ccc2OC[C@@H](C)N(C(=O)Nc2cccc(Cl)c2)C[C@H]1C` the relative growth was inactive: 0.983.
For `Cn1cncc1CN1CCO[C@]2(COCCN(S(C)(=O)=O)C2)C1`, the relative growth was inactive: 1.01.
For `C[C@H]1CN([C@@H](C)CO)C(=O)c2cc(NS(=O)(=O)c3ccc(Cl)cc3)ccc2O[C@@H]1CN(C)Cc1ccc(C(=O)Nc2ccccc2N)cc1`, the relative growth was inactive: 1.03.
With `CN1C(=O)c2cc(NC(=O)c3ccc(F)cc3)ccc2OC[C@H]2O[C@@H](CC(=O)N3CCOCC3)CC[C@@H]21` the relative growth was inactive: 1.02.
In the case of `COCCOC(=O)N1C(=O)[C@@]2(c3cc(C#CCC(C(=O)OC)C(=O)OC)ccc31)[C@H](C(=O)NC[C@H](O)c1ccccc1)[C@H]1C(=O)O[C@H](c3ccccc3)[C@H](c3ccccc3)N1[C@@H]2c1ccc(OCCO)cc1`, the relative growth is reported as inactive: 1.06.
With `Cc1noc(C)c1NC(=O)N(C)C[C@H]1Oc2ccc(NC(=O)c3ccncc3)cc2C(=O)N([C@H](C)CO)C[C@@H]1C` the relative growth was inactive: 1.02.
With `CC1CCN(S(=O)(=O)c2c[nH]cn2)CC1` the relative growth was inactive: 0.975.
In the case of `Cc1ccnc([C@@H](N)C2CC2)c1`, the relative growth is reported as inactive: 1.
With `CN1CCN(C(=O)C[C@H]2CC[C@@H]3[C@H](COC[C@H](O)CN3Cc3ccc4c(c3)OCO4)O2)CC1` the relative growth was inactive: 1.01.
`CO[C@H]1CN(C)C(=O)c2cc(NC(=O)CC(F)(F)F)ccc2OC[C@@H](C)N(C(=O)C2CCOCC2)C[C@H]1C` was tested, and the relative growth was inactive: 1.01.
In the case of `C[C@H]1CN([C@@H](C)CO)C(=O)Cc2cc(NC(=O)CCN3CCOCC3)ccc2O[C@H]1CN(C)Cc1ccncc1`, the relative growth is reported as inactive: 0.97.
In the case of `C[C@H]1CCCCO[C@@H](CN(C)C)[C@@H](C)CN([C@@H](C)CO)C(=O)c2cc(NC(=O)CCCN(C)C)ccc2O1`, the relative growth is reported as inactive: 0.973.
In the case of `CCCCCN1C/C=C\CCC(=O)N(C)[C@H](C)[C@@H](c2ccccc2)OC(=O)[C@@H]2[C@@H]3C=C[C@]4(O3)[C@H](C1=O)N(c1ccccc1Cl)C(=O)[C@@H]24`, the relative growth is reported as inactive: 0.984.
With `COc1ccc(S(=O)(=O)Nc2cccc3c2O[C@H](CN(C)S(=O)(=O)c2c(C)noc2C)[C@@H](C)CN([C@H](C)CO)C3=O)cc1` the relative growth was inactive: 1.03.
With `CC(C)NC(=O)Nc1ccc2c(c1)CC(=O)N([C@@H](C)CO)C[C@H](C)[C@H](CN(C)S(=O)(=O)c1ccc(Cl)cc1)O2` the relative growth was inactive: 1.01.
With `C[C@H]1CN=C(NS(=O)(=O)c2ccccc2)N1` the relative growth was inactive: 1.
`O=S(=O)(NCCCN(CCCc1ccccc1)CCCc1ccccc1)c1cccc2cnccc12` was tested, and the relative growth was inactive: 0.962.
For `C[C@H](CO)N1C[C@H](C)[C@H](CN(C)S(=O)(=O)c2ccc(F)cc2)Oc2c(NS(=O)(=O)c3ccccc3)cccc2C1=O`, the relative growth was inactive: 0.99.
With `Cc1noc(C)c1S(=O)(=O)Nc1ccc2c(c1)CC(=O)N([C@@H](C)CO)C[C@@H](C)[C@H](CN(C)S(=O)(=O)c1cccs1)O2` the relative growth was inactive: 1.01.
For `Nc1nc(=S)c2ncn([C@@H]3O[C@H](CO)[C@@H](O)[C@H]3O)c2[nH]1`, the relative growth was inactive: 0.933.
`NCCNC(=O)c1nc(-c2ccc(Br)o2)no1` was tested, and the relative growth was inactive: 0.892.
In the case of `COc1ccc(NC(=O)Nc2ccc3c(c2)C(=O)N([C@@H](C)CO)C[C@H](C)[C@H](CN(C)Cc2ccc(C(F)(F)F)cc2)O3)cc1`, the relative growth is reported as inactive: 0.982.
For `C[C@H](CO)N1C[C@H](C)[C@@H](CN(C)Cc2ccc3c(c2)OCO3)Oc2c(NC(=O)c3ccncc3)cccc2C1=O`, the relative growth was inactive: 0.988.
With `Cc1cc(C(=O)Nc2cccc3c2O[C@H](CN(C)C(=O)NC(C)C)[C@@H](C)CN([C@H](C)CO)C3=O)n(C)n1` the relative growth was inactive: 1.01.
In the case of `Cc1ccc(S(=O)(=O)N(C)C[C@@H]2Oc3ncc(Br)cc3C(=O)N([C@@H](C)CO)C[C@@H]2C)cc1`, the relative growth is reported as inactive: 0.991.
`CNC(C)C1CCC(N)C(OC2C(N)CC(N)C(OC3OCC(C)(O)C(NC)C3O)C2O)O1.O=S(=O)(O)O` (configuration not stated) was tested, and the relative growth was inactive: 0.797.
In the case of `Cc1nc(-c2sc3ccc(Cl)cc3c2C)cs1`, the relative growth is reported as inactive: 1.
With `C[C@@H]1CN([C@@H](C)CO)C(=O)c2cc(NC(=O)Cn3cnnn3)ccc2O[C@@H]1CN(C)C(=O)Nc1ccc2c(c1)OCO2` the relative growth was inactive: 0.999.
For `C[C@H](CO)N1C[C@H](C)[C@@H](CN(C)Cc2ccc3c(c2)OCO3)Oc2ccc(NC(=O)CCCN(C)C)cc2C1=O`, the relative growth was inactive: 0.991.
`C[C@H](CO)N1C[C@H](C)[C@H](CN(C)C(=O)Nc2ccc3c(c2)OCO3)Oc2ccc(NC(=O)Nc3ccc(C(F)(F)F)cc3)cc2CC1=O` was tested, and the relative growth was inactive: 1.05.
`C[C@@H]1CN([C@@H](C)CO)C(=O)c2cc(NC(=O)C3CC3)ccc2O[C@@H]1CN(C)Cc1ccc(Oc2ccccc2)cc1` was tested, and the relative growth was inactive: 1.01.
For `O=C(C[C@@H]1CC=CCC[C@@H](Cc2ccc(F)cc2)C(=O)OC[C@@H](Cc2c[nH]c3ccccc23)NC1=O)N[C@@H](CO)Cc1ccccc1`, the relative growth was inactive: 1.
In the case of `CC(C)(C)OC(=O)CC[C@@]12N=C(c3ccc(OCCCO)cc3)O[C@@H]1c1ccccc1CN(Cc1ccccc1)C2=O`, the relative growth is reported as inactive: 1.02.
For `C[C@H](CO)N1C[C@H](C)[C@H](CN(C)C(=O)Nc2ccc3c(c2)OCO3)OCCCC[C@H](C)Oc2ccc(NC(=O)C3CCCCC3)cc2C1=O`, the relative growth was inactive: 1.01.
With `Nc1ncnc2c1ncn2[C@@H]1O[C@H](CO)[C@@H](O)[C@H]1O` the relative growth was inactive: 1.01.
With `C[C@H]1CN([C@@H](C)CO)S(=O)(=O)c2ccc(C#CC3(O)CCCC3)cc2O[C@@H]1CN(C)C(=O)c1ccncc1` the relative growth was inactive: 1.
For `COc1ccc(S(=O)(=O)Nc2ccc3c(c2)C(=O)N([C@@H](C)CO)C[C@H](C)[C@@H](CN(C)Cc2ccc(C(F)(F)F)cc2)OCCCC[C@H](C)O3)cc1`, the relative growth was inactive: 0.897.
In the case of `C[C@@H]1CN([C@H](C)CO)C(=O)Cc2cc(NC(=O)Nc3cccc4ccccc34)ccc2O[C@H]1CN(C)C(=O)NC1CCCCC1`, the relative growth is reported as inactive: 0.953.
In the case of `COc1ccc2c3c([nH]c2c1)[C@H](CO)N(C[C@]13CCN(CC1)C(=O)Nc1cccc(c1)F)C(=O)c1ccccc1`, the relative growth is reported as inactive: 1.03.
